# Laboratory results reported in article PMC4336329 (PLoS ONE, 2015).
# In all, about 310,000 compounds went through this assay and about 14,000 (4.5%) showed an effect of 50% or more. Effects have a minus sign here. This is one part of the list.
# Target: human ether-à-go-go-related gene (hERG) potassium channel (human, UniProt Q12809)
# Experiment: primary screen, population patch clamp on CHO cells stably expressing hERG
# 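Further: peak tail current of the secondary pulse compared with the same well before compound.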
# Chain of human ether-à-go-go-related gene (hERG) potassium channel (Q12809 whole entry, looked up): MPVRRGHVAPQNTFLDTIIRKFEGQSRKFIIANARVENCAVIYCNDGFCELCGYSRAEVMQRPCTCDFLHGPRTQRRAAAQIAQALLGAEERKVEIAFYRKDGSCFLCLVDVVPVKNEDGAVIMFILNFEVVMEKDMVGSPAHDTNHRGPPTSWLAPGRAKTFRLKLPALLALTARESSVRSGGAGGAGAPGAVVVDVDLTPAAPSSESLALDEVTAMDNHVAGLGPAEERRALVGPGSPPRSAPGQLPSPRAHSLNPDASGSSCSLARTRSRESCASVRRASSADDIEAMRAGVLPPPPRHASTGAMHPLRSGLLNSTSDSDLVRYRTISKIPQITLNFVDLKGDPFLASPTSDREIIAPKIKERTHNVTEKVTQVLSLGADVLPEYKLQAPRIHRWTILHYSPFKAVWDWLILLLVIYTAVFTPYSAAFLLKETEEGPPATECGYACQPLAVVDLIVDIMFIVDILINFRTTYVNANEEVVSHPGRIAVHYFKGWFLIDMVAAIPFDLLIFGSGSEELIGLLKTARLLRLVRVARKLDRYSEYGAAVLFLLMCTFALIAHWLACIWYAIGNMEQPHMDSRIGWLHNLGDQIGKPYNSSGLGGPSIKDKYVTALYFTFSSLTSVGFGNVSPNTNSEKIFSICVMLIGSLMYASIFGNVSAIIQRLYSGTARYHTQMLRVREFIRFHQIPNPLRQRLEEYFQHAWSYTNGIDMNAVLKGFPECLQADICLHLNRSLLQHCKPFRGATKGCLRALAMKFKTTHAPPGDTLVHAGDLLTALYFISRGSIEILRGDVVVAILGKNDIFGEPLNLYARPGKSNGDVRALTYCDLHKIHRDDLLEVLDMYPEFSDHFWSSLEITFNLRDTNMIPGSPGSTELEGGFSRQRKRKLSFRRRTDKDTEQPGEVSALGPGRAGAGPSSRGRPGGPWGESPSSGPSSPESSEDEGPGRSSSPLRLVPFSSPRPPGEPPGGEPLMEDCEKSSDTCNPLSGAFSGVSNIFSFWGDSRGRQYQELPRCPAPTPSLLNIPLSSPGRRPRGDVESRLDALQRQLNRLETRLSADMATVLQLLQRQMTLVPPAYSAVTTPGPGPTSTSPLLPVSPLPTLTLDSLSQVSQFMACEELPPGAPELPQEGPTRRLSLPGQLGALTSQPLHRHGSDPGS
row,SMILES,"hERG current change (%, negative = inhibition) at 10uM [%]"
1,CCN(Cc1nc(-c2ccccc2)no1)C(=O)c1ccco1,-5.78
2,Cn1nccc1C(=O)N1CCN(c2cccc(Cl)c2)CC1,11.6
3,COc1ccc(C)cc1N(CC(=O)Nc1cccnc1)S(=O)(=O)c1ccccc1,-11.6
4,CC(=O)c1c(C)nc(-c2cccc([N+](=O)[O-])c2)n1O,10.5
5,Cc1ccc(-c2csc(N3CCC[C@@H]3C(=O)NCCn3c(-c4ccncc4)nc4ccccc43)n2)cc1,-15.3
6,COc1ccc(-c2cc(C(F)(F)F)nc(SCCC(=O)N3CCCC3)n2)cc1,5.03
7,COc1cccc(NC(=O)CCS(=O)(=O)c2cccs2)c1,14
8,NS(=O)(=O)c1cccc(NC(=O)CSc2nnnn2-c2ccccc2)c1,1.12
9,CN(CC(=O)Nc1cccc(F)c1)C(=O)c1ccc(N2CCCCC2)c([N+](=O)[O-])c1,-8.94
10,CCc1cc(-c2[nH]ncc2-c2nc3ccccc3n2C)c(O)cc1O,-13.6
11,COc1cccc(CN(C)C(=O)CCc2nnc(-c3ccsc3)o2)c1,-8.35
12,NC(=O)CC(NC(=O)c1ccc(Br)cc1)c1ccc(N2CCN(c3ccccn3)CC2)c([N+](=O)[O-])c1 (stereo not shown),-10
13,Cc1cc(OC(C)C(=O)NCC2CCC(C(=O)O)CC2)c2c(C)c(Cc3ccccc3)c(=O)oc2c1 (stereo not shown),-16.6
14,CCSc1nc(O)c(C2OC(=O)c3c2ccc(OC)c3OC)c(=O)n1-c1ccccc1 (stereo not shown),21
15,CCOC(=O)Cn1cc(/C=C(\C#N)C(=O)N2CCOCC2)c2ccccc21,-5.7
16,Cn1cc(CN2CCCC(C(=O)c3ccc(-c4ccccc4)cc3)C2)cn1 (stereo not shown),-34.4
17,Cc1cc(Br)ccc1S(=O)(=O)NCc1ccccc1,-0.319
18,COc1ccc2cc3cc(C(=O)N4CCN(c5ccccc5)CC4)oc3nc2c1,13.2
19,CCN(c1ccccc1)S(=O)(=O)c1ccc(Cl)c(NC(=O)CSc2nnc(C)s2)c1,-24.2
20,Cc1ccsc1/C=C1/SC(=O)N(CC(=O)N2CCOCC2)C1=O,1.16
21,O=c1cc(-c2ccccc2)nc(SCc2ccc(Cl)cc2)[nH]1,11.2
22,CCOc1ccccc1Nc1nc(N)nc(CSc2nccc(C)n2)n1,-5.29

row,SMILES,"hERG current change (%, negative = inhibition) at 10uM [%]"
1,O=C(NCCc1ccc2c(c1)OCCO2)c1cccc(S(=O)(=O)N2CCCC2)c1,-5.94
2,CC(=O)N(C)c1ccc(NC(=O)CCN2C(=O)c3ccccc3C2=O)cc1,16.5
3,CSc1nncc(/C(C)=N\Nc2ccccc2C)n1,-4.79
4,Cc1ccc(S(=O)(=O)NNC(=O)Nc2cccc(F)c2)c(C)c1,4.66
5,O=c1[nH]c2cc3c(cc2cc1C(c1nnnn1Cc1ccccc1)N1CCCCCC1)OCCO3 (stereo not shown),-11.2
6,CCCCCCCCOC(=O)c1nc(Cl)c(Cl)c(N)c1Cl,-66.3
7,Cc1onc(C(N)=O)c1C(=O)Nc1ncc(C(F)(F)F)cc1Cl,11.6
8,CC(C)(C)c1cc(C(=O)NCCCn2ccnc2)cc(C(C)(C)C)c1.Cl,13.1
9,O=C(CCC(=O)N1CCN(c2ccccn2)CC1)Nc1nnc(C2CCCCC2)s1,7.03
10,O=C(CC1SCCNC1=O)Nc1cccc(Cl)c1 (stereo not shown),16.8
11,O=C(NCC1CCCO1)c1cc2c(s1)CS(=O)(=O)C2 (stereo not shown),11.8
12,c1ccc2c(CCNc3ncnc4nc[nH]c34)c[nH]c2c1,11.8
13,Cc1ccc(C(=O)c2ccccc2C(=O)O)cc1C,7.52
14,CCCCn1nc(C(=O)NC2=NCCS2)c2ccccc2c1=O,-16.3
15,COc1cccc(-c2nc(CS(=O)(=O)CC(=O)NCCc3ccc(C)cc3)c(C)o2)c1,1.59
16,COc1cc2c(C#CCCCO)c(-c3ccc(C#N)cc3)oc(=O)c2cc1OC,1.85
17,C=CCOc1cccc(CNn2cn[nH]c2=S)c1,10.1
18,C=CCn1c(C)cc(C(=O)COC(=O)COc2ccccc2C#N)c1C,-4.56
19,CCOC(=O)N1CCN(C(=O)CCS(=O)(=O)c2cc3c(cc2Cl)NC(=O)CO3)CC1,-4.26
20,COc1ccc(CN2CCN(C(=O)CC(C)C)CC2)cc1,25.4
21,CCCS(=O)(=O)c1c(S(=O)(=O)CCC)c2ccccn2c1C(=O)OC,-7.5
22,CCCn1c(SCC(=O)NCc2ccc(C)cc2)n[nH]c1=O,17.3

row,SMILES,"hERG current change (%, negative = inhibition) at 10uM [%]"
1,N/C(=N\[N+](=O)[O-])N1CCN(C(=O)c2ccccc2)CC1,24.8
2,COc1cccc(Nc2nnc(SCC(=O)Nc3sccc3C(N)=O)s2)c1,8.27
3,COc1ccc(-c2noc3c2-c2nc(-c4c(F)cccc4F)sc2CC3)cc1,16.1
4,CCC(=NCc1ccco1)c1c(O)[nH]c(=O)[nH]c1=O,-20.8
5,Nc1ccc2nc3n(c(=O)c2c1)CCC3,11.9
6,Brc1ccccc1C1=Nn2c(nnc2-c2ccco2)SC1,-29.2
7,O=C(NCCNC(=O)C(F)(F)F)c1ccncc1,-1.76
8,CC(NC(=S)NC(=O)c1ccccc1Br)c1ccccc1 (stereo not shown),4.83
9,COC(=O)c1c(NC(=O)CSc2nnc(Cn3nnc4ccccc43)n2C)sc(C)c1C,-62.7
10,O=C(COC(=O)c1ccccc1Nc1ccccc1)Nc1ccccc1,14.5
11,CCCOc1ccc(C(=O)O/N=C(\CC)c2ccc(C)cc2)cc1,-2.29
12,C/C(CC(=O)Nc1ccc2c(c1)OCCO2)=N\NC(=O)C(=O)Nc1ccccc1C,0.439
13,COCCCNC(=O)CSc1nc2cc(S(=O)(=O)N3CCCCC3)ccc2o1,-0.889
14,CCN(CC)S(=O)(=O)c1ccc2c(c1)nc(CCC(=O)O)n2C,6.87
15,CCn1nc(C)c(NC(=O)c2cnn3c(C(F)F)cc(-c4ccccc4)nc23)c1C,-11.9
16,COC(=O)C[C@H]1c2ccccc2S(=O)(=O)N1C(C)C,11.2
17,Cc1cccc(CS(=O)(=O)c2nnc([C@H](Cc3ccccc3)NC(=O)OC(C)(C)C)o2)c1,2.87
18,CC(=O)c1ccccc1OCCOc1ncnc2sccc12,-0.697
19,Cc1cc(C)n(C(=O)COc2ccc(Cl)cc2Cl)n1,5.59
20,CSCCC(NS(=O)(=O)c1ccc(C)cc1)C(=O)N1CCN(C(C)=O)CC1 (stereo not shown),3.56
21,C=CCn1c(SCC(=O)Nc2nncs2)nnc1-c1ccco1,14.3
22,O=C(Cc1ncc(C(F)(F)F)cc1Cl)Nc1ccc(F)cc1,8.49

row,SMILES,"hERG current change (%, negative = inhibition) at 10uM [%]"
1,O=S(=O)(NCc1ccc(Cl)cc1)c1cnc[nH]1,5.18
2,CSc1ccccc1C(=O)C1CCCN(C(=O)c2ccc(N3CCOCC3)cc2)C1 (stereo not shown),-12.2
3,COc1ccc(-n2c(-c3cccc(C)c3[N+](=O)[O-])n[nH]c2=S)cc1,11.7
4,CCCCN(CC)C(=O)Cc1ccccc1OC,16.2
5,CN(C)C(=O)Cn1nc(-c2ccccc2)c2ccccc2c1=O,2.62
6,CC(C)(C)c1ccc(C(=O)n2cnc3ccccc32)cc1,18.7
7,Cc1noc(C)c1C(=O)N1CCN(S(=O)(=O)c2cccs2)CC1,15.7
8,Cc1ccc(OCC(=O)Nc2ccccc2C(=O)N2CCCC2)cc1,-14.2
9,Cc1ccc(-c2csc3nc(SCC(=O)Nc4ccc(Cl)c(C(=O)O)c4)[nH]c(=O)c23)cc1,2.38
10,COC(=O)c1c(C(=O)OC)c(-c2ccc(F)cc2)n2c1CS(=O)C2 (stereo not shown),26.7
11,Fc1ccccc1-c1nc(-c2ccc(Cl)cc2)no1,5.58
12,Cc1cc(NS(=O)(=O)c2ccc(NC(=O)CCc3ccccc3)cc2)no1,12.2
13,Cc1cccc(NC(=O)CSc2nnc(NC(=O)c3ccc(S(=O)(=O)N4CCOCC4)cc3)s2)c1C,0.662
14,CN(c1ccccc1)S(=O)(=O)c1ccc(C(=O)Nc2ccncc2)cc1,-9.83
15,Cc1ccc(Nc2nnc(SCC(=O)NCCN3C(=O)CSC3=O)s2)cc1,-12.3
16,CCN(Cc1ccccc1)S(=O)(=O)CCNC(=O)c1ccccc1,-26.5
17,CCN1CCN(c2cc(C)c3cc(NC(=O)CCC(=O)Nc4ccc(OC)c(OC)c4)ccc3n2)CC1,4.85
18,Cl.O=C(CN1CCCCCC1)N1c2ccccc2C=Cc2ccccc21,-26.1
19,O=C(/C=C/c1ccccc1)OCC(=O)N1CCN(c2ccccc2)CC1,1.92
20,CCOC(=O)c1c(C)n(Cc2ccccc2)c2ccc(O)cc12,4.43
21,O=C(COC(=O)Cc1ccccc1[N+](=O)[O-])Nc1nnc(-c2ccccc2)o1,12.4
22,Cc1c(C)c2c(OCC(=O)NCc3ccncc3)cc3c(c2oc1=O)CCC(C)(C)O3,7.03
